# “And” between values parts separate entries of the source, which are not always exact repeats. Equal entries are not always repeated. In all, about 340,000 compounds went through this assay and about 6,900 (2%) were called active. No stated cut-off is given here; in the data, active means inhibition above about 30%; inactive means below that, where a call was filed. The list shows a part of the results, in another mix than the full data. Entries without a call were filed so in the source.
# Biological target: D(2) dopamine receptor (Homo sapiens) (UniProt P14416)
# Chain of UniProt P14416 (P14416 whole entry, looked up): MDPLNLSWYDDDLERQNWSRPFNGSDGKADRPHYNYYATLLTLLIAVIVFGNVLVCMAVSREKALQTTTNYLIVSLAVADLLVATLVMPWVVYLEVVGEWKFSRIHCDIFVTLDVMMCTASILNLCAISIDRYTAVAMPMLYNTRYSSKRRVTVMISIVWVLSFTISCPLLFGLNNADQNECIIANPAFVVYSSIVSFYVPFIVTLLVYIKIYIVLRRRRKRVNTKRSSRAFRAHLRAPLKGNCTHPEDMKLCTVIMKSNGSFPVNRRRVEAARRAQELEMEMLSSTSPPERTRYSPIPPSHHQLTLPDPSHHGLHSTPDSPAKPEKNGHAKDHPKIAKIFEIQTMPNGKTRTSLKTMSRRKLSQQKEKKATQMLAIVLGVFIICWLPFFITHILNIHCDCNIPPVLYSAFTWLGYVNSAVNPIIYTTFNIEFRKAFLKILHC
# Assay: HTS Assay for Allosteric Antagonists of the Human D2 Dopamine Receptor: Primary Screen for Antagonists; further: 0% is about no effect
# Conditions: HEK293 TREx D2 cells, calcium flux, dopamine EC80; at 10 µM; stronger effect = higher value
# Method in brief: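 Cells plated overnight at 30 C with tetracycline; no-wash calcium dye, 30–90 min RT; 10 s baseline; compound pinned; 180 s read; EC80 dopamine added; another 180 s read.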
row,Compound,inhibition
1,CCc1cccc(NC(=O)CN2C(=O)CN=C(c3ccccc3F)c3cc(Cl)ccc32)c1,9.81%
2,CCN(CC)CCCC(C)N=C(c1ccccc1)c1c(O)n(C)c(=O)n(C)c1=O (stereo not drawn),active: 68.9%
3,CCOc1ccc(C2C(C#N)=C(N)Oc3c2c(=O)oc2ccccc32)cc1 (stereo not drawn),active: 30.7%
4,COc1ccccc1N1CCN(CCc2ccccc2)CC1,active: 73.5%
5,N#Cc1cc2c(nc1SCC(=O)Nc1ccc(C(F)(F)F)cc1)C1CCN2CC1,-7.35%
6,COc1ccc(-n2c(/C=C\c3ccccc3F)nc3ccccc3c2=O)c(OC)c1,-7.41%
7,CC(C)c1ccc(OCC(=O)N2CCN(CCc3ccncc3)CC2)cc1,7.89%
8,CN1CCN(c2ccc(N)cc2Cl)CC1,active: 45.9%
9,CCOc1ccc(CN(CCc2ccc3c(c2)OCO3)Cc2cc(OC)ccc2O)cc1,11.8%
10,Cc1ccc(NC(=O)N(Cc2ccc3c(c2)OCO3)C2CCN(Cc3ccccc3)CC2)cc1C,-22.4%
11,CN1CCN(c2ccc([N+](=O)[O-])c(NCc3ccco3)c2)CC1,active: 52.7%
12,Cc1cc(OCC(=O)N2CCN(CCc3ccncc3)CC2)ccc1Cl,-1.04%
13,COc1ccc(OCC(=O)N2CCN(Cc3cccc(OC)c3OC)CC2)cc1,8.09%
14,CC(C)(C)c1ccc(C(=O)C2CCCN(C3CCC3)C2)cc1 (stereo not drawn),active: 37.5%
15,Cc1cc(C)cc(OCC(=O)Nc2ccc(Cl)cc2C(=O)c2ccccc2)c1,-1.47%
16,NC(=O)c1ccc(OCCC(O)N2CC=C(c3ccc(F)cc3)CC2)cc1 (stereo not drawn),active: 64.6%
17,Clc1cccc(N2CCNCC2)c1,active: 35%
18,c1ccc(CCN2CCC(N3CCN(c4ccccc4)CC3)CC2)cc1,active: 71.8%
19,CCOC(=O)c1ccc(NC(=O)c2sc3nc4c(cc3c2N)N2CCC4CC2)cc1,0.485%
20,CC(C)OCC(O)CN1CC2C[C@@H](C1)Cn1c2cccc1=O (stereo partly drawn),active: 41.7%
21,O=S1(=O)N(Cc2ccccc2)CCCN1Cc1ccc(F)cc1Cl,-0.448%
22,C1=C(c2c[nH]c3ccccc23)CCNC1,active: 41.9%
23,CCOc1ccc(CN2CCCC(C(=O)c3ccccc3OC)C2)cc1 (stereo not drawn),active: 71.8%
24,Cc1ccc(OCC(=O)Nc2ccc(Cl)cc2C(=O)c2ccccc2)cc1,-4.61%
25,Oc1cc2c(cc1CN1CCN(c3ccccc3)CC1)CCC2,active: 72.9%

row,Compound,inhibition
1,CC(CCc1ccccc1)NC(C)C(O)c1ccc(O)cc1 (stereo not drawn),active: 63.8%
2,CCN1C(=O)CC(c2cccnc2)=Nc2ccccc21,active: 31.4%
3,O=C(Nc1ccc(Br)cc1C(=O)c1ccccc1)c1ccccc1,3.85%
4,COC(=O)c1ccc(NC(=O)c2cccn(Cc3ccccc3C)c2=O)cc1,9.22%
5,COc1ccccc1N1CCN(Cc2cccc(OC)c2O)CC1,active: 81.3%
6,CCOc1ccc(CN(CCc2ccc3c(c2)OCO3)Cc2cccc(C)c2)cc1,-13.8%
7,CCN(CC)C(=O)c1ccc(NC(=O)CCn2nc(-c3ccc(C)cc3)c3ccccc3c2=O)cc1,2.3%
8,Cc1cccc(C2CC(=O)Oc3c2c(=O)oc2ccccc32)c1 (stereo not drawn),-14%
9,CCCC(CCC)C(=O)OC[N+](C)(C)CCOC(=O)C(O)(c1ccccc1)C1CCCC1 (stereo not drawn),active: 39.1%
10,CCc1ccc(-c2nn(Cc3ccccc3)cc2C=O)cc1,active: 35%
11,Oc1ccc(Cl)cc1CN1CCN(Cc2ccccc2)CC1,active: 31.9%
12,CCCC1=Nc2cc(C(=O)NC3CCC(C)CC3)ccc2Sc2ccccc21 (stereo not drawn),-1.37%
13,Fc1ccccc1CCNCc1cccc2ccccc12,active: 31.1%
14,Cc1cc(NC(=O)c2cccn(Cc3ccccc3)c2=O)no1,-25.9%
15,Cc1cccc2sc(NC(=O)c3cccn(Cc4ccccc4)c3=O)nc12,-12.6%
16,Nc1c(C(=O)Nc2cccc(Br)c2)sc2nc3c(cc12)N1CCC3CC1,8.44%
17,Cc1ccc(C2CC3CCC(C2)N3Cc2ccccc2F)cc1 (stereo not drawn),active: 67.8%
18,CCOc1ccc(CN(CCc2ccc3c(c2)OCO3)Cc2ccc(CC)cc2)cc1,6%
19,Cc1oc2cc3oc(=O)c(CCC(=O)N4CCCCC4)c(C)c3cc2c1C,12.3%
20,CCN(CC)C(=O)N[C@H]1C[C@@H]2c3cccc4[nH]cc(c34)C[C@H]2N(C)C1,active: 83.3%
21,CN1/C(=C\C=C\C2=[N+](C)c3ccc4ccccc4c3C2(C)C)C(C)(C)c2ccccc21,active: 39%
22,COc1ccc(CN2CCN(Cc3ccccc3F)CC2)cc1,active: 30.7%
23,COc1ccc2c(c1OC)CN1CCc3cc4c(cc3C1C2)OCO4 (stereo not drawn),active: 86.2%
24,CC(=O)O[C@@]12CO[C@@H]1C[C@H](OC1OCC(O)C(O)C1O)[C@@]1(C)C(=O)[C@H](O)C3=C(C)[C@@H](OC(=O)[C@H](O)[C@@H](NC(=O)c4ccccc4)c4ccccc4)C[C@@](O)([C@@H](OC(=O)c4ccccc4)C12)C3(C)C (stereo partly drawn),active: 37.5%
25,Cc1ccccc1-n1nc(C)c2c1NC(=O)CSC2c1ccccc1C(F)(F)F (stereo not drawn),5.79%

row,Compound,inhibition
1,CC(C)[C@@]1(NC(=O)[C@@H]2C=C3c4cccc5[nH]cc(c45)C[C@H]3N(C)C2)O[C@@]2(O)[C@@H]3CCCN3C(=O)[C@H](Cc3ccccc3)N2C1=O,active: 80.2%
2,CC[C@@H](CO)NC(=O)[C@@H]1C=C2c3cccc4c3c(cn4C)C[C@H]2N(C)C1,active: 32.4% and active: 62.6% and active: 47.5%
3,CCN1CCN(c2ccc(N)c(C)c2)CC1,active: 49.4%
4,COc1ccccc1CN1CCN(C(=O)COc2cccc(C)c2)CC1,16.1%
5,COc1ccc(NC(=O)CN2C(=O)CN=C(c3ccccc3)c3ccccc32)c(OC)c1,5.54%
6,Cc1ccc(C(C)C)c(OCC#CCN2CCCC2)c1,active: 34.7%
7,Fc1ccc(N2CCN(Cc3ccc4c(c3)OCO4)CC2)cc1,active: 65.6%
8,COC(=O)C1=C(c2ccc(C(C)=O)cc2)C[C@@H]2CC[C@H]1N2C(=O)NC(C)C,active: 52.2%
9,O=C(COc1ccccc1Cl)N1CCN(CCc2ccccn2)CC1,24.6%
10,CCOc1ccc(CN(CCc2ccc3c(c2)OCO3)Cc2cccc(Br)c2)cc1,11.9%
11,Cc1nnc(NC(=O)c2cccn(Cc3ccccc3)c2=O)s1,1.15%
12,Cc1cccc(OC(C)C(=O)NCC2(N(C)C)CCCCC2)c1C (stereo not drawn),7.67%
13,O=c1cccc2n1CC1CC2CN(C(c2ccccc2)c2sc3ncnn3c2O)C1 (stereo not drawn),active: 31.6%
14,O=C(Nc1nc2ccccc2s1)c1cccn(Cc2ccccc2)c1=O,-13.4%
15,COc1ccccc1-n1c(-c2ccccc2)nc2ccccc2c1=O,active: 39.8%
16,CCOC(=O)c1c(N)n(Cc2ccco2)c2nc3ccccc3nc12,active: 30%
17,CCOC(=O)C1CCCCC12C(C#N)=C(N)Oc1n[nH]c(C)c12 (stereo not drawn),active: 30.5%
18,C1=C(CCNCc2ccccc2)CCCC1,active: 39.3%
19,Cc1ccc(CNC(=O)CCCn2c(=O)c3sccc3n(CC(=O)Nc3c(C)cccc3C)c2=O)cc1,-23.6%
20,CCNc1cc(N2CCNCC2)ccc1[N+](=O)[O-],active: 35.3%
21,CN1C[C@H](CNC(=O)OCc2ccccc2)C[C@@H]2c3cccc4c3c(cn4C)C[C@H]21,active: 77.7%
22,Cc1cccc(-n2c(/C=C\c3cccc(Br)c3)nc3ccccc3c2=O)c1,-26.9%
23,COc1ccc(C2CC(=O)Oc3c2c(=O)oc2ccccc32)c(OC)c1OC (stereo not drawn),13.4%
24,O=[N+]([O-])c1cccc(CN2CCN(Cc3ccc(Cl)cc3)CC2)c1,active: 50.5%
25,CCOC(=O)C1(Cc2ccc(Cl)cc2)CCN(C(C)CCn2cccn2)CC1 (stereo not drawn),active: 77.6%

row,Compound,inhibition
1,CN1CC=C(c2c[nH]c3ccccc23)CC1,active: 74.7%
2,COc1ccc(OC)c(CCNCc2c(C(=O)O)c(C)n(Cc3ccc(F)cc3Cl)c2C)c1,-23.9%
3,CN1CCN(c2cc([N+](=O)[O-])ccc2Cl)CC1,active: 69.4%
4,COc1ccc(NC(=O)CCc2nc(C3=CCN(Cc4cccc(C)c4)CC3)no2)c(OC)c1,-13.2%
5,Cc1cc(OCC(=O)N2CCN(CCc3ccncc3)CC2)cc(C)c1Cl,12%
6,Cc1cccc(Cn2cccc(C(=O)Nc3nc4ccccc4s3)c2=O)c1,-1.29%
7,CCOC(=O)c1ccc(NC(=O)CSc2nc3c(cc2C#N)N2CCC3CC2)cc1,-10.2%
8,Cc1ccsc1C(=O)C1CCCN(Cc2cccc(OCCO)c2)C1 (stereo not drawn),active: 51.9%
9,COc1cccc(-n2c(/C=C/c3cccc(C)c3)nc3ccccc3c2=O)c1,-6.2%
10,CCCCCCN1CCN(c2ccc(Cl)cc2)CC1,active: 50.9%
11,Cc1cccc(-n2c(CC3C(=O)Nc4ccc(C)cc43)nc3ccccc3c2=O)c1 (stereo not drawn),20.2%
12,O=[N+]([O-])c1cccc(CN2CC=C(c3ccc(F)cc3)CC2)c1,active: 72.6%
13,Cc1ccc(-n2c(/C=C/c3cccc4ccccc34)nc3ccccc3c2=O)cc1,24.1%
14,O=C(CCCN1CCC2(CC1)C(=O)NCN2c1ccccc1)c1ccc(F)cc1,active: 71.3%
15,CC(C)C[C@H]1C(=O)N2CCC[C@H]2[C@]2(O)O[C@](NC(=O)[C@@H]3C=C4c5cccc6[nH]cc(c56)C[C@H]4N(C)C3)(C(C)C)C(=O)N12,active: 72%
16,CCCCN(Cc1ccccc1)C1CCN(CCc2ccccc2)CC1,active: 55.8%
17,O=C(Nc1ccccc1C(F)(F)F)c1cccn(Cc2ccccc2)c1=O,-1.99%
18,NCCc1c[nH]c2ccc(F)cc12,active: 94.7%
19,CC(=O)c1cccc(OCC(O)CN2CC=C(c3ccccc3)CC2)c1 (stereo not drawn),active: 80.5%
20,Cc1ccccc1-n1c(/C=C/c2ccccc2F)nc2ccccc2c1=O,-7.85%
21,O=C(COc1ccccc1[N+](=O)[O-])N1CCN(CCc2ccccn2)CC1,2.45%
22,CCOC(=O)c1cncn1C(C)c1ccccc1 (stereo not drawn),active: 34.7%
23,N#Cc1cc2c(nc1SCC(=O)Nc1ccc(Cl)c(C(F)(F)F)c1)C1CCN2CC1,-17.9%
